Test results reported in PubChem BioAssay AID2451 (National Center for Advancing Translational Sciences (NCATS), 2010).
Out of some 290,000 compounds screened, about 2,100 (0.72%) were called active. Inconclusive results, whose numbers are uncertain, are shown with a selection of clear calls. The call rests on the fitted dose curve; in most records, active means well fitted inhibition curve with a large enough effect; inconclusive means small, poorly fitted or top-dose-only effect, or effect the other way; inactive means flat fitted curve, though single readings scatter. Potencies of inconclusive entries are doubtful fits and often do not repeat.

These compounds were tested against Fructose-bisphosphate aldolase (Giardia intestinalis (strain ATCC 50803 / WB clone C6)) (UniProt A8B2U2) (assay: qHTS Assay for Inhibitors of Fructose-1,6-bisphosphate Aldolase from Giardia Lamblia). Details: purified Giardia FBPA; activity, negative = inhibition: at 59.6 µM (top of the series) unless noted.
Chain of UniProt A8B2U2 (A8B2U2 whole entry, looked up): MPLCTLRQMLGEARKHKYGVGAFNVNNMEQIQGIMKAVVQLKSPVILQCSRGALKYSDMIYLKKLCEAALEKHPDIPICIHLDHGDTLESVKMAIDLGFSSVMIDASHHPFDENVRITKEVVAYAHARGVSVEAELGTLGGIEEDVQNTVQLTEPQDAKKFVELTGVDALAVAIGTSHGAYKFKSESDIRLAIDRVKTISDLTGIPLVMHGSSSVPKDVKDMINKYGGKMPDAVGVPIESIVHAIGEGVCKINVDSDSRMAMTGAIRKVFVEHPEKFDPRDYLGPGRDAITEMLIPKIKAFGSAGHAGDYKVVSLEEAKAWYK
In short: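 Giardia FBPA (40 nM reagent) was preincubated 10 min at RT with compound (up to 57.5 uM final), then substrate plus GAPDH/TPI/NAD/arsenate coupling system with diaphorase/resazurin was added; resorufin fluorescence (525/598 nm) was read after 20 min.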
Further: nearly all actives have a fitted effect of over 55% in size.
On the % scale 0 is the no-effect control and ±100 the full control effect; potency means the concentration at half of the fitted maximal effect; tags describe the fitted curve by direction and shape.

| Structure (SMILES) | Potency | activity, negative = inhibition |
| --- | --- | --- |
| O=[N+]([O-])c1ccc(CN2CCN(c3ccc(F)cc3)CC2)o1 | inconclusive: 17.8 µM [inhibitor, partial curve] | – |
| CCN1CCN(Cc2cc(C(C)(C)C)c(O)c(C(C)(C)C)c2)CC1 | inconclusive: 17.7 µM [inhibitor, single point] | – |
| CN(C)c1ccc(C=Nc2ccccc2)cc1 | – | inactive: -1.23% |
| O=C(CSc1nc2c(cnn2-c2ccc(F)cc2)c(=O)[nH]1)N1N=C(c2cccs2)CC1c1ccc(F)cc1 (stereo unspecified) | – | inconclusive: 33.4% [activator] |
| O=C(CSc1nc2cc(Cl)ccc2s1)c1ccco1 | inconclusive: 15.8 µM [inhibitor, partial curve] | – |
| CCSc1nc2sc3c(c2c(=O)[nH]1)CC(C)(C)OC3 | inconclusive: 22.4 µM [inhibitor, single point] | – |
| Cc1cc(Cl)c2oc(C(=O)NCC(C)(C)N3CCOCC3)c(C)c2c1 | – | inactive: 5.74% |
| S=c1[nH]c2ncccc2o1 | inconclusive: 15.8 µM [inhibitor, partial curve] | – |
| O=S(=O)(c1ccc(NC(=S)N/N=C/c2ccc(O)c(O)c2)cc1)N1CCOCC1 | – | inactive: 1.08% |
| Cc1ccccc1C(OCC(O)CN1CCN(CCO)CC1)c1ccccc1 (stereo unspecified) | inconclusive: 11.2 µM [inhibitor, partial curve] | – |
| CC(CN(C)C1CCN(C)CC1)c1ccccc1 (stereo unspecified) | inconclusive: 20 µM [inhibitor, partial curve] | – |
| COC(=O)c1ccc(COc2ccc(C=O)cc2OC)o1 | – | inactive: -2.01% |
| CC(=O)Nc1ccc(CN2CCCCCC2)cc1 | inconclusive: 31.6 µM [inhibitor, partial curve] | – |
| CN(C)CCc1cc2c(c3c1ccc1ccccc13)OCO2 | inconclusive: 7.06 µM [inhibitor, partial curve] | – |
| Oc1ccc(Cl)cc1C(C#Cc1ccccc1)N1CCOCC1 (stereo unspecified) | – | inactive: -2.49% |
| CC(C)C[C@@H](CC(=O)N[C@@H](CCCN)CC(=O)N[C@@H]1CCCC[C@H]1C(=O)N[C@H](CC(=O)N[C@@H](CCC(=O)O)CC(=O)O)Cc1ccccc1)NC(=O)[C@@H]1CNCC[C@H]1N | – | inactive: -27.3% |
| O=S(=O)(Nc1cc(Sc2ncn[nH]2)c(O)c2ccccc12)c1ccccc1 | active: 1.99 µM | – |
| COc1cccc(CN2CCN(Cc3cccc(Br)c3)CC2)c1OC | inconclusive: 15.8 µM [inhibitor, partial curve] | – |
| Cn1nnc(NC(=S)NC(=O)Cc2ccccc2)n1 | active: 1.58 µM | – |
| CCOC(=O)C1CCN(C(=O)COc2cccc3ccccc23)CC1 | – | inactive: -2.04% |
| O=C(Nc1nnc(-c2ccco2)o1)c1ccc2ccccc2c1 | inconclusive: 15.8 µM [activator, partial curve] | – |
| CC(C)c1ccc(N2C(=O)CC(Sc3ncn[nH]3)C2=O)cc1 (stereo unspecified) | inconclusive: 15.8 µM [inhibitor, partial curve] | – |
| O=C(O)C1Nc2c(C(=O)N3CCOCC3)cccc2C2C=CCC12 (stereo unspecified) | inconclusive: 6.29 µM [inhibitor, partial curve] | – |
| O=C(Nc1sc2c(c1C(=O)O)CCC2)c1ccc(F)cc1 | active: 14.1 µM | – |
| C/C(=C\C(=O)c1cccnc1)Nc1ccc(O)cc1 | inconclusive: 28.1 µM [inhibitor, single point] | – |
| O=Cc1ccc(O)c2ncccc12 | inconclusive: 1.77 µM [inhibitor, partial curve] | – |

| Structure (SMILES) | Potency | activity, negative = inhibition |
| --- | --- | --- |
| COc1ccc(-c2cc(=O)oc3cc(OC(C)C(=O)NCc4ccccn4)ccc23)cc1 (stereo unspecified) | – | inactive: 19.1% |
| N#CC(=C(\N)Sc1ccccc1N)/C(C#N)=C(/N)Sc1ccccc1N | – | inactive: -6.71% |
| Cc1nc(CNS(=O)(=O)c2ccc(F)cc2)cs1 | – | inactive: 0.751% |
| COC(=O)C1=C(C)N=c2s/c(=C3\C(=O)Nc4ccccc43)c(=O)n2C1c1ccccc1 (stereo unspecified) | inconclusive: 5.61 µM [inhibitor, single point] | – |
| O=C(c1cccnc1)N(c1cc2sc(=O)oc2c2ccccc12)S(=O)(=O)c1ccccc1 | inconclusive: 17.7 µM [inhibitor, partial curve] | – |
| Cc1ccccc1-c1nc2sc3c(c2c(=O)o1)CCC3 | – | inactive: 0.0563% |
| CC(=O)[O][Hg][c]1ccccc1 | active: 17.7 µM | – |
| S=C(NCc1ccccc1Cl)Nc1ccccc1Cl | – | inactive: -2.65% |
| O=C1C(c2cc(=O)c3ccccc3[nH]2)=C(O)c2ccccc21 | inconclusive: 19.9 µM [inhibitor, single point] | – |
| COc1ccc(CCNC(=S)NC2CCN(Cc3ccccc3)CC2)cc1 | inconclusive: 35.4 µM [inhibitor, single point] | – |
| Cc1cccc(NC(=O)CSc2n[nH]c(-c3ccncc3)n2)c1C | active: 22.4 µM | – |
| COc1cc2[nH]c(=S)n(CCN3CCOCC3)c(=O)c2cc1OC | inconclusive: 15.8 µM [inhibitor, single point] | – |
| Cc1onc(-c2c(F)cccc2Cl)c1C(=O)NC(=S)NC1CCSC1=O (stereo unspecified) | inconclusive: 19.9 µM [inhibitor, partial curve] | – |
| CSc1sc(-c2n[nH]c(=S)n2C)c2c1C=CCC2 | inconclusive: 7.92 µM [inhibitor, partial curve] | – |
| CC(C)n1cnc2c(N(C)c3ccccc3)nc(N(CCN(C)C)Cc3ccccc3)nc21 | – | inactive: -2.41% |
| CC(NCC1COc2ccccc2O1)C(=O)NCc1ccccc1 (stereo unspecified) | inconclusive: 9.98 µM [inhibitor, partial curve] | – |
| COc1cc(/C=C(\C#N)C(=O)Nc2ccccn2)ccc1O | inconclusive: 22.4 µM [inhibitor, partial curve] | – |
| N#Cc1c(N2CCCC(O)C2)nc(N)c2c(N)nc3c(c12)CC(=O)N3C12CC3CC(CC(C3)C1)C2 (stereo unspecified) | inconclusive: 1.99 µM [inhibitor, partial curve] | – |
| CC(=O)N1CCN(Cc2nc3cc(NC(=O)COc4ccccc4)ccc3n2C)CC1 | inconclusive: 22.3 µM [inhibitor, single point] | – |
| CCN1CCCc2cc(CN(CCN3CCOCC3)C(=S)Nc3cccc(C)c3)ccc21 | – | inactive: -11.6% |
| O=C1c2ccccc2-c2nc3ccccc3nc21 | – | inactive: -14.9% |
| Cc1ccsc1/C=C/C1=Cc2c(sc(NC(=O)CSc3n[nH]c(N)n3)c2C#N)C(C)(C)C1 | inconclusive: 15.8 µM [inhibitor, partial curve] | – |
| S=c1[nH]c2cc3c(cc2[nH]1)OCCO3 | inconclusive: 15.8 µM [inhibitor, single point] | – |
| Cc1cc(NC(=O)CC#N)n(-c2nc3ccccc3[nH]2)n1 | active: 15.8 µM | – |
| COC(=O)/C=C/C1c2ccccc2C(OC)C1C (stereo unspecified) | – | inactive: -0.748% [at 12.9 µM] |
| O=C(N/N=C/c1ccc[nH]1)c1cccc(Br)c1 | inconclusive: 17.7 µM [inhibitor, single point] | – |

| Structure (SMILES) | Potency | activity, negative = inhibition |
| --- | --- | --- |
| O=c1c(-c2cc(F)cc(F)c2)nc2cnc(N3CCOCC3)nc2n1Cc1ccc(F)cc1 | – | inactive: 6.28% |
| CCCCCCc1cc2cc(C(=O)NCc3ccccc3)c(=N)oc2cc1O | – | inactive: -10.6% |
| COc1ccc([N+](=O)[O-])cc1C1NN=C(c2ccccc2O)S1 (stereo unspecified) | – | inactive: -1.85% |
| CCC1=Nc2cc(C(=O)N3CCC4(CC3)OCCO4)ccc2Sc2ccccc21 | inconclusive: 4.47 µM [activator, single point] | – |
| COc1ccccc1/C=N/NC(=O)C(=O)N1CCN(c2ccccc2OC)CC1 | inconclusive: 22.3 µM [inhibitor, single point] | – |
| COc1ccc(NC(=O)CSc2nccc(C)n2)cc1 | – | inactive: 2.2% |
| C/C(Cl)=C\Cn1c(O)c(N=NC(N)=S)c2cc(Br)ccc21 | inconclusive: 4.46 µM [inhibitor, single point] | – |
| N#CC(=NCc1cccnc1)C1=C(O)c2ccccc2C1=O | inconclusive: 15.8 µM [inhibitor, partial curve, poor fit] | – |
| COC(=O)CCNCCSc1nnc(-c2ccco2)n1Cc1ccccc1 | inconclusive: 9.98 µM [inhibitor, partial curve] | – |
| C=CCSc1nnc(N2C(=O)C(O)=C(C(=O)c3ccco3)C2c2ccccc2F)s1 (stereo unspecified) | inconclusive: 20 µM [inhibitor, partial curve] | – |
| Cc1ccc(CN2CCN(Cc3ccccc3C(F)(F)F)CC2)cc1 | inconclusive: 15.8 µM [inhibitor, partial curve] | – |
| O=C(c1cc(COc2c(F)cccc2F)on1)N1CCN(C2CCCCC2)C(=O)C1 | – | inactive: 7.84% |
| Cc1cccc(N2CC34C=CC(O3)C(C(=O)O)C4C2=O)c1 (stereo unspecified) | – | inactive: 4.97% |
| COCCOC(=O)c1c(NC(=O)CNCc2ccco2)sc(C(N)=O)c1C | – | inactive: -11.3% |
| COc1ccc(-c2cc(=O)c3ccccc3o2)cc1OC | active: 7.92 µM | – |
| CN(C)CC/C=C1/c2ccccc2Sc2c(O)cc(Cl)cc21 | inconclusive: 19.9 µM [inhibitor, partial curve] | – |
| C/C(=N/NC(=O)c1cccc(C)c1)c1c(O)cc(C)oc1=O | inconclusive: 15.8 µM [inhibitor, single point] | – |
| Cc1cccnc1NC(=S)Nc1ncccc1C | inconclusive: 28.2 µM [inhibitor, partial curve] | – |
| O=C(Nc1ncccn1)c1cc([N+](=O)[O-])cc([N+](=O)[O-])c1 | – | inactive: -6.87% |
| CCOC(=O)C1CCCN(CC(=O)c2ccc(F)cc2)C1 (stereo unspecified) | active: 15.8 µM | – |
| CCC(=O)Nc1ccc(C(=O)NNC(=O)c2ccc(C)cc2)cc1 | – | inactive: 10.3% |
| CCOc1cccc(N2C(=O)CC(NNC(=O)c3ccc(Br)o3)C2=O)c1 (stereo unspecified) | – | inactive: 1.52% |
| CCCCC(=O)NNC(=S)NC(=O)CCC | inconclusive: 44.6 µM [inhibitor, single point] | – |
| CCCCN1C(=O)/C(=C(/C#N)C(N)=O)c2ccccc21 | inconclusive: 14.1 µM [inhibitor, partial curve] | – |
